# In all, about 310,000 compounds went through this assay and about 14,000 (4.5%) showed an effect of 50% or more. Effects have a minus sign here. The list shows a part of the results.
# Target: human ether-à-go-go-related gene (hERG) potassium channel (human, UniProt Q12809)
# Experiment: primary screen, population patch clamp on CHO cells stably expressing hERG
# 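Note: peak tail current of the secondary pulse compared with the same well before compound.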
# Chain of human ether-à-go-go-related gene (hERG) potassium channel (Q12809 whole entry, looked up): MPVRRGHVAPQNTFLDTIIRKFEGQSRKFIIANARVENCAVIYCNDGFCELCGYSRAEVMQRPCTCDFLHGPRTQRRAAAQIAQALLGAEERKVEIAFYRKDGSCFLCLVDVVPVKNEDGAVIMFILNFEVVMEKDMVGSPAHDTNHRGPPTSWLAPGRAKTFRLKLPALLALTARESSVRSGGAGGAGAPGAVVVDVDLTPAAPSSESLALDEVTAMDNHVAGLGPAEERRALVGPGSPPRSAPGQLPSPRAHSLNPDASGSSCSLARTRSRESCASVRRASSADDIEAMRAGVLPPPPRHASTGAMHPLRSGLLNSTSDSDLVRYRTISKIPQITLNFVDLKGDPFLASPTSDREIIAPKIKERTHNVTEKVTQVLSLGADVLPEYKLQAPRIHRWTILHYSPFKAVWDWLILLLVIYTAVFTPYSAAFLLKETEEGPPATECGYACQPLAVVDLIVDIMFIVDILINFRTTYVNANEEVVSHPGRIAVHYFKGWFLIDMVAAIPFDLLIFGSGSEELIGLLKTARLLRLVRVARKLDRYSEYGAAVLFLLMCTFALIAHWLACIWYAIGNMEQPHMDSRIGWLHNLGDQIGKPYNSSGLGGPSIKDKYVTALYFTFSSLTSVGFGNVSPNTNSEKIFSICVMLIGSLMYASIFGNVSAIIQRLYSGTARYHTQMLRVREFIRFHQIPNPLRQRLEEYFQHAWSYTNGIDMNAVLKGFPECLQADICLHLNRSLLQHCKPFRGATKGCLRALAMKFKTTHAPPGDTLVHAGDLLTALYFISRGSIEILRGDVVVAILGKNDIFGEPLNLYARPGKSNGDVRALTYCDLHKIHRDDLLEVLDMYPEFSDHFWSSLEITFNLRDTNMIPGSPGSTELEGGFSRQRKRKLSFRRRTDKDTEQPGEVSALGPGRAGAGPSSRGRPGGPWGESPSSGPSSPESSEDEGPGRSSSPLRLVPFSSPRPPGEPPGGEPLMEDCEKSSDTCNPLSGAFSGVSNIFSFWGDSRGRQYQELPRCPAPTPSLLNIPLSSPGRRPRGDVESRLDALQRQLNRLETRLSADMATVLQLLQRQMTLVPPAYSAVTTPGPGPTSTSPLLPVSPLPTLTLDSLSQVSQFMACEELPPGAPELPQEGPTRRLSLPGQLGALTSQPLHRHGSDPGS
row,Structure (SMILES),"hERG current change (%, negative = inhibition) at 10uM"
1,O=C1NC2(CCCCCC2)C(=O)N1CCS(=O)(=O)Oc1ccccc1,1.12%
2,CCOC(=O)c1nc(NCc2ccccc2)c2ccccc2n1,-20.6%
3,CCOc1cccc(C(=O)N(Cc2cccc(F)c2)C2CCS(=O)(=O)C2)c1 (stereo not drawn),-3.61%
4,CCCSc1cc(NCCOC(=O)CCC)c([N+](=O)[O-])c2nonc12,-28.7%
5,O=C1CC(N2CCCN(C3CC(=O)N(c4ccc(F)cc4)C3=O)CC2)C(=O)N1c1ccc(F)cc1 (stereo not drawn),-43%
6,N=C1/C(=C\c2ccc(-c3cccc(Cl)c3)o2)C(=O)N=C2SC=C(c3ccccc3)N12,-12.5%
7,COC(=O)/C=C/c1cnc[nH]1,21.5%
8,CCC(C(=O)NC1CC1)n1nc(C)c2c(C)n(-c3ccccc3)nc2c1=O (stereo not drawn),8.02%
9,COC(=O)c1ccc(Oc2nc(N(C)C)nc(N3CCOCC3)n2)cc1,9.23%
10,CC(NC(=O)/C(C#N)=C/c1ccco1)c1ccccc1 (stereo not drawn),-9.97%
11,COc1ccc(S(=O)(=O)c2snnc2C)cc1,6.22%
12,O=C(NCC(O)c1ccc([N+](=O)[O-])cc1)c1cccc(S(=O)(=O)N2CCOCC2)c1 (stereo not drawn),-13%
13,CCOC(=O)c1c(-c2ccc(OC)c(OC)c2)csc1NC(=O)C1CCCO1 (stereo not drawn),-22%
14,CC(=O)c1cc2c(cc1NC(=O)CCc1ccccc1)OCO2,8.37%
15,CCc1ccccc1NC(=S)NC1CC2CCCC(C1)N2Cc1cccs1 (stereo not drawn),-4.03%
16,Cc1nn(-c2ccccc2)c(C)c1/C=C/C(=O)OC(C)C(=O)Nc1ncc(Cl)cc1Cl (stereo not drawn),-20.3%
17,COc1ccc(/C=C2\SC(=O)N(CCC(=O)NCCCn3ccnc3)C2=O)cc1,-43.2%
18,Cc1cc(Cl)ccc1OCCCC(=O)NC1CCN(C)CC1,-51.2%
19,O=C(CCN1C(=O)c2ccccc2S1(=O)=O)N1CCN(c2cccc(Cl)c2)CC1,-41.2%
20,COc1cc(/C=C/C(=O)Nc2ccc3[nH]c(=O)[nH]c3c2)cc(OC)c1OC,-1.8%
21,C(#Cc1ccccc1)C[N+]1(CC#Cc2cccc3ccccc23)CCCC1.[Br-],-8.37%

row,Structure (SMILES),"hERG current change (%, negative = inhibition) at 10uM"
1,COc1ccc(S(=O)(=O)N2CCC(C(=O)NC(c3nc4ccccc4[nH]3)C(C)C)CC2)cc1 (stereo not drawn),13.8%
2,C/C(CC1(O)C(=O)N(C)c2ccccc21)=N\O (stereo not drawn),11%
3,CC(C)c1cc(C(=O)N/N=C/c2cccnc2)cs1,-31.9%
4,Cc1c(O)ccc2c(CC(=O)N[C@@H](Cc3c[nH]c4ccccc34)C(=O)O)cc(=O)oc12,19%
5,COc1ccc(CNC(=O)CCCn2ccc3cc(S(=O)(=O)N4CCCC4)ccc32)cc1,-52%
6,O=S1(=O)N=C2CCCN2C(c2ccc(F)cc2)N1 (stereo not drawn),-1.65%
7,O=C(Nc1cc([N+](=O)[O-])ccc1Cl)C(Sc1ccccc1)c1ccccc1 (stereo not drawn),4.8%
8,CC(C)(C)C(=O)NC(=S)Nc1ccccc1C(N)=O,5.4%
9,CC1(C)C2CC=C(/C=N/NC(=S)Nc3cccnc3)C1C2 (stereo not drawn),16.7%
10,O=S1(=O)NC(=NCC(c2ccco2)N2CCCCC2)c2ccccc21 (stereo not drawn),8.31%
11,CCOc1cc(C#N)ccc1OCC(=O)N1CCc2ccccc2C1,-40.7%
12,CCO/C=C1\C(=O)N(c2ccccc2)C(=O)c2ccccc21,19.2%
13,CCn1c(=O)cc(OCC(=O)N2CCN(Cc3ccc4c(c3)OCO4)CC2)c2ccccc21,-17.9%
14,Cc1ccc(NC(=O)CS(=O)CC(=O)N(c2ccccc2)C(C)C(=O)NC2CCCC2)cc1 (stereo not drawn),-24%
15,CC(C)CN1CCN(Cc2ccc(C#CC(C)(C)O)cc2)CC1CCO (stereo not drawn),8.57%
16,Cc1cc(NS(=O)(=O)c2ccc(NC(=O)COc3ccccc3[N+](=O)[O-])cc2)no1,-1.65%
17,Cn1c(SCC(=O)Nc2ccc3[nH]c(=O)[nH]c3c2)nnc1-c1ccccc1,14.3%
18,COc1ccc(C2=Nn3c(nnc3-c3cccnc3)SC2)cc1OC,-61.8%
19,CCN(C(=O)c1cccnc1)c1ccccc1,4.13%
20,Cc1onc(C(=O)Nc2c(C)n(C)n(-c3ccccc3)c2=O)c1[N+](=O)[O-],1.51%
21,O=C(CN1C(=O)c2ccc([N+](=O)[O-])cc2C1=O)NC1CCS(=O)(=O)C1 (stereo not drawn),-2.95%
